{
  "source": "PubChem BioAssay AID720709",
  "about": "(National Center for Advancing Translational Sciences (NCATS), 2013)",
  "note": "Out of some 360,000 compounds screened, about 520 (0.14%) were called active. The inconclusive results got no clear call from the source; some entries with a clear call stand among them for comparison. Calls follow the shape of the dose curve; as a rule, active = well fitted inhibition curve with a large enough effect; inconclusive = small, poorly fitted or top-dose-only effect; inactive = no such curve, though single readings can be large or run the other way. No potency is given beside an inconclusive call; the fits are too rough. Potency is read from the fitted curve at half-maximal effect; tags tell the direction and shape of the fitted curve.",
  "data": [
    {"target": "Rap guanine nucleotide exchange factor 3 (Homo sapiens) (UniProt O95398)", "sequence (O95398 whole entry, looked up)": "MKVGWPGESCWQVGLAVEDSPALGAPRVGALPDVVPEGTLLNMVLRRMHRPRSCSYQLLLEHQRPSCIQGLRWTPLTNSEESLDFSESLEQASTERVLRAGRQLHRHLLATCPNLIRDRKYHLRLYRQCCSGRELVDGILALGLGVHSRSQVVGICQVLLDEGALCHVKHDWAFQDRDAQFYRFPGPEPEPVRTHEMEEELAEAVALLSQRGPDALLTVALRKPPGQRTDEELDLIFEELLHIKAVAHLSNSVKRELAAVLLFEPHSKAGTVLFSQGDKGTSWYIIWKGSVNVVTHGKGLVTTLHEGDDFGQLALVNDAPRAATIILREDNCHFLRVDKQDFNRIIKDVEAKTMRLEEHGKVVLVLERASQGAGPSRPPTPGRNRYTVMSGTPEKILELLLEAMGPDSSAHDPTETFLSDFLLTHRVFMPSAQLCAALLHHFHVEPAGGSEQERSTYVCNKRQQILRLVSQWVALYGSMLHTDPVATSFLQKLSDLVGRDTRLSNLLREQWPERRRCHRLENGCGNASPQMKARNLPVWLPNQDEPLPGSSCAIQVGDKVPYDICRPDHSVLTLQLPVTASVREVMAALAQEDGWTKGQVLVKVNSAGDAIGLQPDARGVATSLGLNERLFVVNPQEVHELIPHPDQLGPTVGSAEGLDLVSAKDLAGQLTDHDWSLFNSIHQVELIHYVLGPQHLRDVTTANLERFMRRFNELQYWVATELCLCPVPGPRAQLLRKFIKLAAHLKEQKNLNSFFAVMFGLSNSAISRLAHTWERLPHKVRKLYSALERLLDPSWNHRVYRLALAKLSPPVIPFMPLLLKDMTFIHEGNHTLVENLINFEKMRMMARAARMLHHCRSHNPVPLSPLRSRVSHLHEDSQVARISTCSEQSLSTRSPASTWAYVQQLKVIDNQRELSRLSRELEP", "test": "qHTS for Antagonist of cAMP-regulated guanine nucleotide exchange factor 3 (EPAC1): primary screen; also: nearly all actives have a fitted effect of over 50% in size", "details": "EPAC1 GEF assay, Rap1b-BODIPY-GDP exchange fluorescence; series mostly up to 115 µM", "values": [
      {"compound": "Cc1ccc(C(=O)c2ccccc2C(=O)OCC(=O)N2CCCC2)cc1", "Potency": "inactive"},
      {"compound": "CC(Oc1ccccc1)c1ccnc2nc(N3CCOCC3)nn12", "note": "(stereo not drawn)", "Potency": "inconclusive [inhibitor, single point]"},
      {"compound": "O=C1/C(=C/c2ccccc2)CCC1C1CCCC1", "note": "(stereo not drawn)", "Potency": "inconclusive [inhibitor, partial curve]"},
      {"compound": "Cn1cnc([N+](=O)[O-])c1S(=O)(=O)Oc1cccc2ccccc12", "Potency": "inactive"},
      {"compound": "COc1cc(-c2nnn(CC(=O)NCc3ccccc3)n2)cc(OC)c1OC", "Potency": "inconclusive [inhibitor, single point]"},
      {"compound": "CCCCC(=O)N(C)c1c(C)nc2ccc(C(=O)N3CCCCC3)cn12", "Potency": "inactive"},
      {"compound": "N#Cc1c(N(CCO)CCO)nc(N)c2c(N)nc3c(c12)CC(=O)N3Cc1cccs1", "Potency": "inconclusive [inhibitor, full curve]"},
      {"compound": "CNc1ccc(/C=C/C(=O)c2ccc(C)cc2)cc1[N+](=O)[O-]", "Potency": "inconclusive [inhibitor, partial curve]"},
      {"compound": "Cc1nnc(SCC(=O)NC23CC4CC(CC(C4)C2)C3)s1", "Potency": "inconclusive [inhibitor, partial curve, poor fit]"},
      {"compound": "O=C(CC1C(=O)NCCN1Cc1ccccc1C(F)(F)F)NCCn1cccn1", "note": "(stereo not drawn)", "Potency": "inconclusive [inhibitor, single point]"},
      {"compound": "S=C(N/N=C1\\CCc2ccccc21)NC1CCCCC1", "Potency": "inconclusive [inhibitor, partial curve, poor fit]"},
      {"compound": "CN[C@H]1CC[C@@H](c2ccc(Cl)c(Cl)c2)c2ccccc21", "Potency": "inconclusive [inhibitor, partial curve]"},
      {"compound": "CC(C)Cc1cc(C(=O)N2CCN(C(c3ccccc3)c3ccccc3)CC2)no1", "Potency": "inconclusive [inhibitor, partial curve, poor fit]"},
      {"compound": "Cc1cccnc1NC(=O)c1ccc(S(=O)(=O)N2CC(C)OC(C)C2)cc1", "note": "(stereo not drawn)", "Potency": "inconclusive [inhibitor, partial curve]"},
      {"compound": "NNC(=O)c1oc2nc(-c3ccco3)cc(-c3ccco3)c2c1N", "Potency": "inconclusive [inhibitor, single point]"},
      {"compound": "Cc1cc(C)n(CC(C)NC(=O)CCc2nnc(CCc3ccccc3)o2)n1", "note": "(stereo not drawn)", "Potency": "inconclusive [inhibitor, single point]"},
      {"compound": "NC(=O)c1ccc(-n2nnnc2SCC(=O)c2ccc(O)c(O)c2)cc1", "Potency": "inconclusive [inhibitor, partial curve]"},
      {"compound": "CSC1=NSC2=NC(=O)/C(=C/c3coc4ccc(O)cc4c3=O)C(=N)N12", "Potency": "inactive"}
    ]}
  ]
}
